Assay results from the RNAGym collection of RNA variant scans (doi:10.1073/pnas.2313332121).
Variants at the floor of the assay are shown more often than the library holds them.

B1: TPR 5TU (parent)
chain: GGAUCUUCUCGAUCUAACAAAAAAGACAAAUCUGCCACAAAGCUUGAGAGCAUCUUCGGAUGCAGAGGCGGCAGCCUUCGGUGGCGCGAUAGCGCCAACGUUCUCAACUAUGACACGCAAAACGCGUGCUCCGUUGAAUGGAGUUUAUCAUG

Variants of: B1
Assay: polymerase ribozyme fitness, log enrichment relative to wild type (log ratio); higher = more active; in vitro selection for triplet polymerase activity
Outline: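 Streptavidin-bead capture of gel-excised extended constructs, followed by RT-PCR, closed a single triplicate in vitro selection round. That round began by annealing PCR-built, transcribed mutant libraries of each subunit of a heterodimeric triplet polymerase ribozyme with a biotinylated primer, the partner subunit and triplets, then incubating them frozen at −7 °C. After Illumina sequencing of inputs and outputs, genotypes needed ≥10 input reads and ≥1 read per output. Fitness is the base-2 logarithm of genotype enrichment over wild-type enrichment, using inverse-variance-weighted replicate averages.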

Variant	polymerase ribozyme fitness (log ratio)
GGAUCUUCUCGAUCUAACAAAAAAGACAAAUCUGCCACAAAGCUUGAGAGCAUCUUCGGAUGCAGAGGCGGCAGCCUUCGGUGGCGCGAUAGCUCCAACGUUCUCAACUAUGACACGCAAAACGCGUGCUCCGUUGAAUGGAGUUUAUCAUG [G94U]	1.12
GGAUCUUCUCGAUCUAACAAAAAAGACAAAUCUGCCACAAAGCUUGAGAGCAUCUUCGGAUGCAGAGGCGGCAGCCUUCGGUGGCGCGAUAGCCCCAACGCUCUCAACUAUGGCCCGCAAAACGCGUGCUCCAUUGAAUGGAGUUUAUCAUG [G94C U101C A113G A115C G133A]	≤ -4.2
GGAUCUUCUCGAUCUAACAAAAAAGACAAAUCUGCCACAAAGCUUGAGAGCAUCUUCGGAUGCAGAGGCGGCAGCCUUCGGUGGCGCGAUAGCGCAAACGUUCUCAACUAUGACACGCAAACCGCGUGCUCCGUUGAAGGGAGUUUAUCCUG [C96A A122C U139G A150C]	-3.67
GGAUCUUCUCGAUCUAACAAAAAAGACAAAUCUGCCACAAAGCUUGAGAGCAUCUUCGGAUGCAGAGGCGGCAGCCUUCGGUGGCGCGAUAGCGCAAACGUUCUCGACCAUGACACGCAAAACGCGUGCUCCGUUGAAUGGAGUUUAUCAUG [C96A A106G U109C]	≤ -4.2
GGAUCUUCUCGAUCUAACAAAAAAGACAAAUCUGCCACAAAGCUUGAGAGCAUCUUCGGAUGCAGAGGCGGCAGCCUUCGGUGGCGCGAUAGCCCCAACUUUCUCAACUAUGACACGCAAAACGCGUGCUCCGUUGAAUGGAGUUUAUCAUG [G94C G100U]	-3.69
GGAUCUUCUCGAUCUAACAAAAAAGACAAAUCUGCCACAAAGCUUGAGAGCAUCUUCGGAUGCAGAGGCGGCAGCCUUCGGUGGCGCGAUAGCUACAACGUUCUCAACUAUGACACGCAAAACGCGUGCUCCGUUGAAUGCAGUUUACCAUG [G94U C95A G141C U148C]	≤ -4.2
GGAUCUUCUCGAUCUAACAAAAAAGACAAAUCUGCCACAAAGCUUGAGAGCAUCUUCGGAUGCAGAGGCGGCAGCCUUCGGUGGCGCGAUAGCUUCAACGUUCUCAACUAUGACACGCAGAACGCGUGCUCCGUUGAAUGGAGUUUACCAUG [G94U C95U A120G U148C]	≤ -4.2
GGAUCUUCUCGAUCUAACAAAAAAGACAAAUCUGCCACAAAGCUUGAGAGCAUCUUCGGAUGCAGAGGCGGCAGCCUUCGGUGGCGCGAUAGCGAUGACGUUCUCAACUAUGACACGCAAAACGCGUGCUCCGUUGAAUGGAGUUUAUCAUG [C95A C96U A97G]	≤ -4.2
GGAUCUUCUCGAUCUAACAAAAAAGACAAAUCUGCCACAAAGCUUGAGAGCAUCUUCGGAUGCAGAGGCGGCAGCCUUCGGUGGCGCGAUAGCUCCAACGUUCUCAAGUAUGACACGCAAAACGCGUGCUCCGUUGAAUGGAGUUUAUCAUG [G94U C108G]	≤ -4.2
GGAUCUUCUCGAUCUAACAAAAAAGACAAAUCUGCCACAAAGCUUGAGAGCAUCUUCGGAUGCAGAGGCGGCAGCCUUCGGUGGCGCGAUAGCUCCAACGUUCUCAACUAUGACACGCAAAACGCGUGCUCCGUUGAAUUGAGUUUAUCAUG [G94U G140U]	-3.84
GGAUCUUCUCGAUCUAACAAAAAAGACAAAUCUGCCACAAAGCUUGAGAGCAUCUUCGGAUGCAGAGGCGGCAGCCUUCGGUGGCGCGAUAGCGUCAAAGUUCUCAACUAUGACACGCAAAACGCGUGCUCCGUUGAAUGGAGUUUAUCAUG [C95U C99A]	-0.15
GGAUCUUCUCGAUCUAACAAAAAAGACAAAUCUGCCACAAAGCUUGAGAGCAUCUUCGGAUGCAGAGGCGGCAGCCUUCGGUGGCGCGAUAGCGUCAAUGUUCUCAACUAUGACACGCAAAACGCGUGCUCCGUUGAAUGGAGUUUAUCAUG [C95U C99U]	-1.09
GGAUCUUCUCGAUCUAACAAAAAAGACAAAUCUGCCACAAAGCUUGAGAGCAUCUUCGGAUGCAGAGGCGGCAGCCUUCGGUGGCGCGAUAGCGUCAACGUUCUCAACUAUGACACGCGAAACGCGUGCUCCGUUGAAUGGAGUUUAUCAUG [C95U A119G]	0.353
GGAUCUUCUCGAUCUAACAAAAAAGACAAAUCUGCCACAAAGCUUGAGAGCAUCUUCGGAUGCAGAGGCGGCAGCCUUCGGUGGCGCGAUAGCCCCAACGUUCUCAACUAUGACACGCAAAACGCGUUCUCCGUUGAAUGGAGUUUAUCAUG [G94C G128U]	-3.18
GGAUCUUCUCGAUCUAACAAAAAAGACAAAUCUGCCACAAAGCUUGAGAGCAUCUUCGGAUGCAGAGGCGGCAGCCUUCGGUGGCGCGAUAGCCCCAACGUUCUCAACUAUGACACGCAAAACGCGGGCUCCGUUGAAUGGAGUUUAACGUG [G94C U127G U148A A150G]	≤ -4.2
GGAUCUUCUCGAUCUAACAAAAAAGACAAAUCUGCCACAAAGCUUGAGAGCAUCUUCGGAUGCAGAGGCGGCAGCCUUCGGUGGCGCGAUAGCGUCAACGUUCGCAACUAUGACACGCAAAACUCGUGCUCCGUUGAAUGGAGUUUAUCAAG [C95U U104G G124U U151A]	≤ -4.2
GGAUCUUCUCGAUCUAACAAAAAAGACAAAUCUGCCACAAAGCUUGAGAGCAUCUUCGGAUGCAGAGGCGGCAGCCUUCGGUGGCGCGAUAGCGUCAACGUUCUCAACUUUGUCACGCAAAACGCGUGCUCCGUUGCAUGGAGUUUAUCAUG [C95U A110U A113U A137C]	≤ -4.2
GGAUCUUCUCGAUCUAACAAAAAAGACAAAUCUGCCACAAAGCUUGAGAGCAUCUUCGGAUGCAGAGGCGGCAGCCUUCGGUGGCGCGAUAGCGUCAACGUUCUCAACUAUGACUGGCAAAACGCGUGCUCCUUAGAAUGGAGUAUAUCAUG [C95U A115U C116G G133U U135A U145A]	≤ -4.2
GGAUCUUCUCGAUCUAACAAAAAAGACAAAUCUGCCACAAAGCUUGAGAGCAUCUUCGGAUGCAGAGGCGGCAGCCUUCGGUGGCGCGAUAGCUCCAACGUUCUCAACUAUGACACGCAAAAUGCGUGCUCCGUUGAAUGGAGUUUAGCAUG [G94U C123U U148G]	≤ -4.2
